Experimental data reported in PubChem BioAssay AID1159614 (National Center for Advancing Translational Sciences (NCATS), 2016).
The campaign covered roughly 45,000 compounds. About 65 (0.1%) were called active. The call rests on the fitted dose curve; in most records, active means well fitted activation curve with a large enough effect; inconclusive means small, poorly fitted or top-dose-only effect; inactive means no such curve, though single readings can be large or run the other way. This is one part of the list.

Target: Galactocerebrosidase (Homo sapiens) (UniProt P54803)
Chain of UniProt P54803 (P54803 whole entry, looked up): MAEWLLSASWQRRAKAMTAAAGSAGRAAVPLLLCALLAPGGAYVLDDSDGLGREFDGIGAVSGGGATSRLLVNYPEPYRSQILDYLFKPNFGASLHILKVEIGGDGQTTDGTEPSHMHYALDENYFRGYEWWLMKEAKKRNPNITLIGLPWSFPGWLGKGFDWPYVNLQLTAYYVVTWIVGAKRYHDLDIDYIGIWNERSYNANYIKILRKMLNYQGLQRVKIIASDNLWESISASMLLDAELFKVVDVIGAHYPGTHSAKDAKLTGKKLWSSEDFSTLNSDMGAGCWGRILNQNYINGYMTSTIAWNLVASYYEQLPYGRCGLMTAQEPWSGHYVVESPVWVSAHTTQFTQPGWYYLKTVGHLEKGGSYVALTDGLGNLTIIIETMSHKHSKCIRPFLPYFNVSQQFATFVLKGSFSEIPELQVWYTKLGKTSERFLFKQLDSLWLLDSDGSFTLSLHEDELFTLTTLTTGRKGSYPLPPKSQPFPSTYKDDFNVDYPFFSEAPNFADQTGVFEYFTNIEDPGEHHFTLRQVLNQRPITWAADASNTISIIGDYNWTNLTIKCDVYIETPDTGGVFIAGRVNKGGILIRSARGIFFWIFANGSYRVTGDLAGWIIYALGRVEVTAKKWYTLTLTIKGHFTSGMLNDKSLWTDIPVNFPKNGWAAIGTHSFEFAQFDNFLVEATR
Test: A Novel Cell-Based Assay to Identify Small Molecules for B -Galactocerebrosidase; further: 0% is about no effect; nearly all actives have a fitted effect of over 65% in size
Settings: 145M-Twi-hGALC-G270D cells (Twitcher mouse brain line with human GALC G270D), HMU-beta-Gal fluorescence, 48 h; series mostly up to 57.5 µM; activation: at the top concentration
In short: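 Live 145M-Twi cells (Twitcher mouse brain-derived, GALC-null) stably expressing human GALC-G270D, with a wild-type GALC line, were compound-treated. Residual GALC activity was then read as fluorescence from 0.1 mM final HMU-β-gal at pH 5.2; higher signal means activation.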

activation, inactive:
CCCSc1ncc(Cl)c(C(=O)NCc2ccc(C)cc2)n1 -8.55%, Cc1c(C(=O)N2CCCC2)oc2c1-c1nn(CC(=O)NCc3ccccc3F)cc1CC2 3.48%, COc1ccc(C2C(C(=O)Nc3cccnc3)=C(C)Nc3nc(-c4ccc(OC)c(OC)c4)nn32)cc1 (configuration not stated) -7.54%, CCOC(=O)c1c(C)[nH]c(CCC(=O)NCc2cc(Br)ccc2OC)c1C -33.6%, Cc1ccc(S(=O)(=O)c2nnn3c2nc(N(C)Cc2ccccc2)c2cc(Cl)ccc23)cc1C 1.25%, Cc1sc(NC(=O)C2c3ccccc3Oc3ccccc32)c(C(=O)OC(C)C)c1C -6.34%, COc1ccc(-c2nc(CSCC(=O)NCCc3ccc(OC)c(OC)c3)c(C)o2)cc1 -4.37%, CC(C)NC(=O)C1=CC(c2ccc3c(c2)OCO3)=NS(=O)(=O)N1C -17.2%, COc1ccccc1CNC(=O)c1cc2cccc3c2n1CCS3 -13.7%, CCN(CC)C(=O)c1sc2c(c1C)c(=O)n(-c1ccccc1)c(=O)n2CC(=O)N(CC)c1cccc(C)c1 -8.46%, COc1cc(C(=O)Nc2cc(C)c(O)c(-c3nc4cc(Cl)ccc4o3)c2)cc(OC)c1OC -9.83%, CC(CCc1ccc2c(c1)OCO2)NN (configuration not stated) -9.51%, Cc1ccc(CNC(=O)c2ccc3c(c2)NC(=O)C(CS(=O)(=O)Cc2cccc(C)c2)N3)cc1 (configuration not stated) -20.7%, COc1cc(NC(=O)CCS(=O)(=O)c2ccc(Br)cc2)cc(OC)c1 -14.2%, CCCCN(C)C(=O)CN1C(=O)c2cccnc2Oc2ccc(Cl)cc21 -9.63%, CN(C(=O)CSc1nncn2c1cc1occc12)c1ccccc1 -21.1%, CCCOc1ccc(C(=O)N(Cc2ccc(Cl)cc2)Cc2ccco2)cc1 -2.49%, Cc1cn2c(=O)cc(COC(=O)COc3ccc(C)c(C)c3)nc2s1 -23.5%, Cc1c(C(=O)N2CCC(C(=O)Nc3ccc(F)c(Cl)c3)CC2)sc2nc[nH]c(=O)c12 26.2%, Cc1ccc(NC(=O)Cn2c(=O)ccc3cc(S(=O)(=O)N4CCCC4)ccc32)cc1C -4.5%, O=C(NCc1cccs1)c1ccc2c(c1)sc1nc(-c3ccccc3)cn12 -9.8%, CC(C)c1ccc(-c2noc(SCC(=O)N3CCN(c4ccccc4F)CC3)n2)cc1 -14.7%, COc1ccc(Cn2ccn(CC(=O)Nc3cc(C)ccc3C)c(=O)c2=O)cc1 -12.5%, COc1ccc2c(c1)c(=O)c(C(=O)c1ccc(F)cc1)cn2CC(=O)Nc1ccc2c(c1)OCCO2 -8.27%, COc1ccc(-c2cn3cccnc3n2)cc1NC(=O)c1ccccc1C(F)(F)F -7.77%, Cc1cc2nn(-c3ccc(F)cc3)nc2cc1NC(=O)c1ccc(C(C)(C)C)cc1 0.528%, COc1cc(CN(C(=O)c2ccccc2)c2ccccn2)cc(OC)c1OC -10.2%, COc1cccc(CNC(=O)Nc2cn(CC(C)C)c(=O)c3ccccc23)c1 -20.4%, COc1ccc(-c2oc3ncn4nc(-c5ccccc5OC)nc4c3c2-c2ccc(OC)cc2)cc1 -11.5%, COc1cc(OC)cc(-n2c(=O)c3sccc3n(Cc3cc(=O)n4c(C)cccc4n3)c2=O)c1 -13.4%, Cc1ccc2c(CC(=O)Nc3nnc(C(C)C)s3)coc2c1C 3.34%, OCCN1CCN(c2ncnc3c2cnn3-c2cccc(Cl)c2)CC1 -23.9%, Cc1nnc2c3ccccc3nc(Nc3ccc(F)cc3Cl)n12 -14.7%, CCOC(=O)c1cc(-c2ccc(F)cc2)n(CCC(=O)Nc2nc3cc(C)c(C)cc3s2)c1C -12.5%, CCOc1ccc(-n2c(-c3ccc(Br)cc3)cc3c2CC(C)(C)CC3=O)cc1 -19.9%, COc1ccc(OCc2ccc(-c3nc(C#N)c(NCc4ccc(F)cc4)o3)o2)cc1 -14.4%, Cc1nc(N2CCCC2)ncc1C(=O)Nc1ccc(OC(F)(F)F)cc1 -15%, COc1ccc(CCNc2ncnc3c2cnn3-c2ccc(F)cc2)cc1 -20.5%, Cc1ccc(Cl)cc1NC(=O)Cn1nnc2sc3c(c2c1=O)CCC(C(C)(C)C)C3 (configuration not stated) -7.9%, Cc1cccc(N(C)S(=O)(=O)c2nnc(NC(=O)C(C)(C)C)s2)c1 -1.31%, COc1ccc(N(Cc2cc3cc(OC)ccc3[nH]c2=O)C(=O)c2cccc(Cl)c2)cc1 -3.58%, COc1ccc(OC)c(CNC(=O)c2cc3c(=O)oc4ccc(C)cc4c3s2)c1 -5.64%, O=C(c1ccc2c(c1)N(Cc1ccccc1F)C(=O)c1ccccc1S2=O)N1CCC(Cc2ccccc2)CC1 (configuration not stated) 0.0237%, Brc1ccc(CN2CCc3nc(Nc4ccccc4)ncc3C2)s1 5.22%, Cn1c(SCC(=O)N2CCOCC2)ncc(C(=O)Nc2ccc(F)cc2)c1=O -10.3%, CCc1ccc(C2c3c(-c4cc(C)ccc4O)n[nH]c3C(=O)N2CCO)cc1 (configuration not stated) -12.4%, CCc1ccc(NCc2cc3cc4c(cc3n(CC(=O)Nc3ccc(OC)cc3)c2=O)OCO4)cc1 -10.8%, COc1ccc(NC(=O)CCCS(=O)(=O)c2nc(-c3ccccc3OC)cc(C(F)(F)F)n2)c(OC)c1 -0.842%, CCCSc1nc2sc3c(c2c(=O)n1-c1ccc(C)cc1)CCCC3 -6.78%, Cn1c(=O)c2c(ncn2CCO)n(C)c1=O -0.14%, CCOC(=O)c1c(S(=O)(=O)NCC(=O)Nc2cccc(SC)c2)c(C)n(C)c1C -6.08%, Cc1ccc(CNC(=O)C2CCCN(c3nc4ccccc4n4cccc34)C2)cc1 (configuration not stated) -31%, CC1CCN(CCCNC(=O)CN2C(=O)CSc3ccc(S(=O)(=O)N4CCCCC4)cc32)CC1 -11%, COc1ccc(C(C)NC(=O)CN(c2cc(OC)ccc2OC)S(=O)(=O)c2ccccc2)cc1 (configuration not stated) -9.98%, COc1cccc(-n2ccnc2SCC(=O)Nc2cccc3ccccc23)c1 -13.5%, O=C(NCc1ccccc1Cl)c1ccc2c(c1)ncn2-c1cccc(F)c1 -9.99%, COc1ccc(-n2c(CC3C(=O)Nc4ccc(C)cc43)nc3ccccc3c2=O)cc1 (configuration not stated) -17.5%, Brc1cccc(-c2nn(-c3ccccc3)c3c2cnc2cc4c(cc23)OCO4)c1 -5.86%, COCCn1c(CNC(=O)c2ccccc2C)nc2cccnc21 -4.48%, Cc1ccc(C)c(CN2CCC(CNC(=O)C(CC(C)C)N3Cc4ccccc4C3=O)CC2)c1 (configuration not stated) -14.4%, COc1ccc(NC(=O)Nc2cccc(-c3noc(C)n3)c2)cc1 2.93%, CCc1cccc(C)c1NC(=O)C1CCN(S(=O)(=O)c2cc(Br)cc3c2N(C(C)=O)CC3)CC1 -16%, O=C(c1cccs1)N1CCCc2cc(NS(=O)(=O)c3ccc(Br)cc3)ccc21 -8.79%, COc1cc(-c2noc(-c3cc4cccc(C)c4oc3=O)n2)cc(OC)c1OC -7.08%, CCCSC1=NC2(CCN(C(=O)NC3CCCCC3)CC2)N=C1c1ccc(OC)cc1 -15.5%, O=c1c2c3c(sc2nnn1CCCCOc1ccc(Cl)cc1)CCCC3 -16%, N#C/C(=C/c1ccc(O)cc1)c1nc(-c2ccc(-c3ccccc3)cc2)cs1 -9%, Cc1nc(-c2cccc(F)c2)sc1CCNC(=O)Cc1ccc(F)cc1 1.7%, O=C(Nc1ccc(F)cc1)c1nc(SCc2ccccc2F)ncc1Cl 2.78%, COc1ccc(-c2nsc(NC(=O)c3oc4ccc(Cl)cc4c3C)n2)cc1 -13%, CCOc1ccccc1-n1c(N)c(C(=O)OC)c2nc3ccccc3nc21 17.2%, Cc1cc(NC(=O)c2cnn(-c3ccccc3)c2-n2cccc2)ccc1Br -11.6%, Cn1c(C(=O)NCc2ccccc2Cl)cc2sc(Cl)cc21 -4.44%, Cc1ccc(OCCn2c(CNc3ccccc3C)nc3ccccc32)cc1 -7.23%, COc1cc(NS(=O)(=O)c2cc(Br)cc3c2N(C(C)=O)C(C)C3)cc(OC)c1 (configuration not stated) 5.35%, O=C(NC1CCCCC1)c1ccc2c(c1)N(Cc1ccc(F)cc1)C(=O)c1ccccc1S2(=O)=O 25.1%, N#CC1=C(N)N(c2ccc(Cl)cc2)C2=C(C(=O)CCC2)C1c1cc(CN2CCOCC2)cs1 (configuration not stated) -7.87%, COc1cccc(CNC(=O)Cn2c(=O)cc(C)c3c(C)nn(C)c32)c1OC -11.5%, Cc1cccc(N(C)C(=O)C2CCC(CNS(=O)(=O)c3cccc4nsnc34)CC2)c1 (configuration not stated) -20.3%, CCc1cccc(NC(=O)Cn2c(=O)n(CC3CCC(C(=O)NC)CC3)c(=O)c3sccc32)c1 (configuration not stated) -11.6%, COc1cccc(CNC(=O)CN(c2ccc(C)cc2)S(=O)(=O)N(C)C)c1OC -11.7%, COc1cccc(-c2nc3c(C#N)c[nH]n3c2NC2CCCCC2)c1 -11.8%, COc1ccc(-c2csc3ncnc(Nc4ccc(OC)cc4OC)c23)cc1 -20.3%, Cc1ccccc1OCC(=O)Nc1c(C)ccc2nsnc12 -6.86%, CC1CCN(S(=O)(=O)c2ccc3c(ccn3CC(=O)NCc3ccc(N(C)C)cc3)c2)CC1 -0.802%, CC(C)c1ccc(S(=O)(=O)c2nnn3c2nc(N2CCOCC2)c2sccc23)cc1 -18.6%, CCOC(=O)N1CCc2c(sc3c2c(=O)n(-c2ccc(CC)cc2)c(=O)n3CC(=O)c2ccccc2)C1 -1.09%, Cc1ccc(NC(=O)C2CCN(C(=O)c3cnn(-c4ccccc4)c3-n3cccc3)CC2)cc1 -9.92%, COc1ccc(NS(=O)(=O)c2ccc3c(c2)CCCN3C(=O)C2CCC2)cc1OC -1.8%, COc1ccc(Cl)cc1NC(=O)Cn1nc(C(F)(F)F)c2c1CCC2 -13.3%, COc1ccc(CCC(=O)NCc2nc3cccnc3n2Cc2cccc(OC)c2)cc1 -7.79%, CCCCc1nn2c(=O)cc(COC(=O)C(C)Oc3ccccc3)nc2s1 (configuration not stated) -9.55%, CCC1CN(C(=O)N2CCC(C(=O)N3CCN(c4ccc(F)cc4)CC3)CC2)c2ccccc2O1 (configuration not stated) -10.2%, COc1nc(N)nc2c1ncn2[C@@H]1O[C@H](CO)[C@@H](O)[C@@H]1O 0.531%, Cc1c(C(=O)Nc2ccccc2Br)oc2ccc(S(=O)(=O)N3CCOCC3)cc12 -11.9%, O=C(NCc1ccccc1Cl)c1ccc(NC(=O)c2nsc3ccccc23)cc1 -4.95%, Cc1ccccc1Cn1c(=O)n(CCCCC(=O)NCc2ccccc2Cl)c(=O)c2ccccc21 9.01%
